Screen size: about 380,000 compounds; about 4,000 (1.1%) were called active. The shares of active, inactive and inconclusive entries below differ from those in the screen. Calls follow the shape of the dose curve; as a rule, active = well fitted activation curve with a large enough effect; inconclusive = small, poorly fitted or top-dose-only effect; inactive = no such curve, though single readings can be large or run the other way. Where the call is inconclusive, the potency comes from a doubtful curve fit.
Test: qHTS Assay to Identify Small Molecule Activators of BRCA1 Expression; also: nearly all actives have a fitted effect of over 80% in size
Details: MCF7-BRCA1-FFLuc reporter, luminescence, 48 h; activation: at 46.1 µM (top of the series), scaled: vehicle 0%, 10 µM genistein 100% unless noted
Method in brief: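 Reporter cells (MCF7, BRCA1 promoter-firefly luciferase) received library compounds across a concentration series for 48 h. End-point luminescence was measured and concentration-effect curves derived after normalization.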
Potency is read from the fitted curve at half-maximal effect; tags tell the direction and shape of the fitted curve.

SMILES | activation | Potency
COc1ccc(C[C@@H]2CN3C(=NC[C@@H]3Cc3ccc(O)cc3)N2C[C@H](C)NC(=O)CCC2CCCCC2)cc1 | inactive: -32.2% | –
COc1ccc(C(=O)Nc2ccc3ccccc3c2)cc1 | inconclusive: 48.2% [activator] | –
Cc1ccc(N2C(=O)c3ccc(N)cc3C2=O)cc1C | – | inconclusive: 14.1 µM [activator, partial curve, poor fit]
Nc1c(-c2ccc(Cl)cc2)cnc2c(-c3ccc(F)cc3)cnn12 | – | inconclusive: 0.631 µM [activator, full curve, poor fit]
CCN(CC)C(=S)SC1=CCS(=O)(=O)C1 | inactive: 0% | –
Cc1nc(N2CCN(C)CC2)[nH]c(=O)c1Cc1cccc2ccccc12 | inactive: -0.835% | –
O=C(NCc1ccc(Cl)cc1)C1CCCN(c2ncnc3c2nc2n3CCCCC2)C1 (centres undefined) | inactive: 1.2% | –
Cc1ccc(COc2ccc(/C=N/NC(=O)CN3CCCCC3)cc2)cc1 | – | inconclusive: 2.82 µM [activator, full curve, poor fit]
Cc1ccccc1S(=O)(=O)NC(=O)C1(C)CCN1C(=O)c1c(C)noc1C (centres undefined) | inactive: 13.3% | –
Cc1cccc(/C(N)=N/OC(=O)Cc2cccs2)c1 | – | inconclusive: 20 µM [activator, partial curve, poor fit]
Cc1oc(-c2nc3ccccc3n2C)cc1C(=O)c1ccccc1 | inconclusive: -50.1% [activator] | –
CCc1nnc(NC(=O)CSc2ccc(-c3ccc(C)cc3)nn2)s1 | – | active: 11.2 µM
Nc1nc(-c2ccco2)c(-c2ccco2)s1 | inactive: -11.6% | –
CC(C)(C)N=Cc1cc(-c2ccccc2)sc1O | – | inconclusive: 2.82 µM [activator, full curve, poor fit]
Fc1ccccc1-c1nc(-c2ccccc2)no1 | inactive: 59.2% | –
Cc1ccc(/C=N/Nc2ccc(Cl)nn2)cc1 | – | inconclusive: 2.51 µM [activator, partial curve, poor fit]
COc1ccc(OC)c(-c2csc(NC(=O)Cc3ccc(F)cc3)n2)c1 | inactive: -32.1% | –
C(=N\Nc1nc2ccccc2[nH]1)/c1ccccc1 | – | inconclusive: 3.55 µM [activator, partial curve, poor fit]
CC(=O)O[C@H]1C(=O)[C@@]2(C)C([C@H](OC(=O)c3ccccc3)[C@]3(O)C[C@H](OC(=O)[C@H](O)[C@@H](NC(=O)c4ccccc4)c4ccccc4)C(C)=C1C3(C)C)[C@]1(OC(C)=O)CO[C@@H]1C[C@H]2O (some centres undefined) | inconclusive: -62.7% [activator] | –
O=C(O)c1cccc(-c2ccc(/C=N/n3cnnc3)o2)c1 | – | inconclusive: 25.1 µM [activator, single point]
O=C(c1ccccc1F)N1CCN(Cc2nc3sc4c(c3c(=O)[nH]2)CCCC4)CC1 | inactive: -36.4% | –
COc1cc(Cl)cc(C(c2c(C(=O)O)[nH]c3ccccc23)c2c(C(=O)O)[nH]c3ccccc23)c1O | inactive: -15% | –
Cc1nn(C)c(C(=O)NNC(=S)NC2CCCCC2)c1Br | – | inconclusive: 31.6 µM [activator, single point]
CC(NCc1ccc(F)cc1)C(=O)Nc1cc(S(=O)(=O)N2CCCCC2)ccc1Cl (centres undefined) | inactive: -64.1% | –
COC(=O)c1cccc(-n2c(C)cc(/C=C3\SC(=O)NC3=O)c2C)c1 | – | active: 10 µM

SMILES | activation | Potency
CSCC(=O)NCC1(N(C)Cc2ccccc2)Cc2ccccc2C1 | inactive: -7.07% | –
O=C(Cc1cccs1)N/N=C/C(Br)=C/c1ccccc1 | – | active: 5.01 µM
Clc1ccccc1/C=N/Nc1cc(N2CCOCC2)ncn1 | – | inconclusive: 3.98 µM [activator, full curve, poor fit]
Cc1ccc(NC(=O)c2ccc3c(c2)OCO3)cc1Cl | – | inconclusive: 1.41 µM [activator, full curve, poor fit]
COc1cccc(NC(=O)C(=O)N2CCOCC2)c1 | – | inconclusive: 15.8 µM [activator, single point]
O=C(CSc1ccccn1)N1CCc2ccccc21 | – | inconclusive: 2.51 µM [activator, full curve, poor fit]
Cc1cc(C)nc(CCNC(=O)c2cc(COc3ccccc3)on2)n1 | – | active: 7.94 µM
O=[N+]([O-])c1ccc(Sc2cccc3cccnc23)cc1 | – | inconclusive: 11.2 µM [activator, partial curve, poor fit]
CCOC(=O)c1ccc(NCc2cccnc2)cc1 | – | inconclusive: 35.5 µM [activator, single point]
Cc1ccc(/C=C/c2nnc(-c3cccs3)o2)cc1 | inconclusive: 54.8% [activator] | –
C=CCOc1ccc(Cl)cc1-c1noc(-c2csc([C@H]3C[C@H](O)[C@@H](CO)O3)n2)n1 | inactive: 29.7% | –
CCOC(=O)N1N=C(c2ccc(OC)cc2)CC1(O)C(F)(F)F (centres undefined) | – | inconclusive: 1.26 µM [activator, full curve, poor fit]
O=C(CSc1ncccn1)NCc1cccc(Cl)c1 | – | active: 11.2 µM
CCc1ccc(NC(=O)CCCN2C(=O)C3CC=CCC3C2=O)cc1 (centres undefined) | – | active: 7.94 µM
CCC(C)n1c(=S)[nH]c2ccccc2c1=O (centres undefined) | inactive: -6.64% | –
O=C(Nc1ccc(-c2noc(CCc3ccccc3)n2)cc1)c1ccco1 | – | inconclusive: 0.501 µM [activator, full curve, poor fit]
COc1ccc(NCCc2ccccn2)cc1 | – | active: 12.6 µM
N/C(=N\OC(=O)c1ccc([N+](=O)[O-])cc1Cl)c1ccccn1 | inconclusive: -89.3% [activator] | –
Cc1ccc(NC(=S)NC(=O)C2CCC2)cc1C | – | inconclusive: 3.55 µM [activator, partial curve, poor fit]
O=C(COC(=O)c1ccc(O)cc1)Nc1ccc2c(c1)OCCO2 | – | inconclusive: 25.1 µM [activator, single point]
Cc1ccc2cc3cc(C(=O)NC4CC4)oc3nc2c1 | inactive: 58.7% | –
CNc1cccc(-c2ccc(C(C)=O)s2)n1 | – | active: 6.31 µM
CN(C)c1ccc(C(=O)Oc2cc(O/N=[N+](\[O-])N(C)C)c([N+](=O)[O-])cc2[N+](=O)[O-])cc1 | – | inconclusive: 35.5 µM [activator, single point]
Cc1ccc(NC(=O)/C(Cl)=C\c2ccccc2)cc1 | – | inconclusive: 1.12 µM [activator, full curve, poor fit]
COc1ccc(/C=C2\C=Cc3ccccc32)cc1 | – | inconclusive: 35.5 µM [activator, single point]

SMILES | activation | Potency
COc1ccc(C(=O)O/N=C(\N)c2ccccc2)cc1 | inconclusive: -25.1% [activator] | –
O=C(Nc1ncc(Cc2ccccc2)s1)c1cccs1 | inconclusive: -12.4% [activator] | –
Cc1cc(C)nc(/N=c2/ssnc2Cl)c1 | inactive: -63.8% | –
N#Cc1cccc(NCC(=O)Nc2ccc3c(c2)OCCO3)c1 | – | inconclusive: 1.78 µM [activator, full curve, poor fit]
COc1ccccc1N1CCN(C(=O)c2ccc(-c3ccccc3)cc2)CC1 | – | inconclusive: 31.6 µM [activator, single point]
Cc1nnc(NC(=O)Nc2cccc(Cl)c2)s1 | – | inconclusive: 7.08 µM [activator, partial curve, poor fit]
COc1ccc2nc(SCC(=O)c3ccco3)[nH]c2c1 | – | inconclusive: 11.2 µM [activator, partial curve, poor fit]
Cc1ccc(-c2csc(C(C#N)=C3CCCC3)n2)cc1 | – | inconclusive: 8.91 µM [activator, partial curve, poor fit]
CCc1ccc(C(=O)N/N=C/c2cccc3ccccc23)nc1 | – | inconclusive: 10 µM [activator, partial curve, poor fit]
COc1ccc(-c2csc(N=C(N)N)n2)cc1 | – | inconclusive: 11.2 µM [activator, partial curve, poor fit]
Cc1ccc(/C=N/NC(=O)c2cc(-c3ccncc3)nc3ccccc23)o1 | inactive: -44.4% | –
O=C(COn1nnc2ccccc21)NCC1CCCCC1 | – | inconclusive: 11.2 µM [activator, partial curve, poor fit]
NC(c1csc(Nc2cnccn2)n1)c1ccccc1Cl (centres undefined) | inactive: -21.6% | –
COc1ccc(-c2cc(C(=O)N3CCCC3)no2)cc1OC | – | inconclusive: 11.2 µM [activator, partial curve, poor fit]
COc1ccc(OCc2cc(C(=O)N(C)Cc3cc(C)no3)no2)c(Cl)c1 | – | active: 3.98 µM
CN=C1S/C(=C\c2ccc(O)c(OC)c2)C(=O)N1C | – | active: 10 µM
COc1ccc(CCN2CC(C(=O)NCCc3ccccc3C(F)(F)F)CCC2=O)cc1 (centres undefined) | – | inconclusive: 17.8 µM [activator, single point]
COc1cc(NC(=O)c2ccccc2Cl)ccc1NC(=O)c1cccs1 | – | active: 6.31 µM
COc1ccc(-c2cn3cccc(C)c3n2)cc1Br | – | active: 3.55 µM
O=C(Nc1cc2c(cc1Cl)OCCCO2)c1ccc(F)cc1 | – | inconclusive: 8.91 µM [activator, partial curve, poor fit]
CC(C)Oc1ccc(Nc2ncnc3ccccc23)cc1 | – | active: 2.51 µM
O=C(OCC(F)(F)F)c1cccc(COc2ccc3ccccc3c2)c1 | inconclusive: -91.5% [activator] | –
Fc1cccc(CSc2ccc(-c3ccco3)nn2)c1 | – | inconclusive: 11.2 µM [activator, partial curve, poor fit]
O=C(N=C1N=C2C=CC=CN2Cc2ccccc21)c1ccc(S(=O)(=O)N2CCCC2)cc1 | – | inconclusive: 7.08 µM [activator, partial curve, poor fit]
